Source: patent US20170296668A1, “METHODS OF INCREASING SOLUBILITY OF POORLY SOLUBLE COMPOUNDS AND METHODS OF MAKING AND USING FORMULATIONS OF SUCH COMPOUND” (VIZURI HEALTH SCIENCES LLC, priority 2009, published 2017)
Each block holds one compound with its values, some of them ahead of it.

What was measured:
[1] = Coenzyme Q10, Polysorbate 80 and jojoba oil solubility testing; type: physicochemical; conditions: CoQ10 first solubilized in PS80 concentrate, about 2 hours
[2] = Solubility in PEG 400 / PEG 300 via thermal treatment process
[3] = Table III; cited from earlier work
[4] = Solubility of apigenin in propylene glycol and ethylene glycol; type: physicochemical
[5] = Solubility of concentrates in oil solvents; type: physicochemical; conditions: mineral, jojoba, canola, borage oils
[6] = Aqueous solution clarity: water added to concentrate vs non-concentrate method
[7] = Supersaturation test by addition of a crystal; conditions: crystal addition to cooled liquid

distribution between water and Jojoba oil phases, Test 2 [1]: the water phase contained the CoQ10
SMILES: COC1=C(OC)C(=O)C(C/C=C(\C)CC/C=C(\C)CC/C=C(\C)CC/C=C(\C)CC/C=C(\C)CC/C=C(\C)CC/C=C(\C)CC/C=C(\C)CC/C=C(\C)CCC=C(C)C)=C(C)C1=O [CoQ10, Coenzyme Q10]

SMILES: O=c1cc(-c2ccc(O)cc2)oc2cc(O)cc(O)c12 [Apigenin, 4′,5,7,-trihydroxyflavone]
Molar Ratio PEG400/API (mole/mole) [2]: 21.7 mole/mole
DPSI PEG300 Sol. Data ([2]; PEG300, thermal treatment): 35 to 45 mg/mL
DPSI PEG400 Sol. Data ([2]; thermal treatment): 30 to 40 mg/mL
Lit. H2O Sol. - [3]: 0.002 mg/mL
behaviour after a few drops of water were added ([4]; saturated apigenin/EG solution): a significant fraction of the solubilized apigenin precipitated out
behaviour after a few drops of water were added ([4]; saturated apigenin/PG solution): a significant fraction of the solubilized apigenin precipitated out
solubility in the test oils [5]: insoluble

SMILES: COc1cc(CNC(=O)CCCC/C=C/C(C)C)ccc1O [Capsaicin, reference compound]
clarity, non-concentrate method (all ingredients with water heated to about 100° C.) ([6]; PEG 400): opaque cloudy solutions
clarity after addition of 17 ml of water to the concentrate ([6]; PEG 400 concentrate): opaque and cloudy
clarity, non-concentrate method (all ingredients with water heated to about 100° C.) ([6]; PS80): opaque cloudy solutions
clarity after addition of 17 ml of water to the concentrate ([6]; PS80 concentrate, more than 50 hours): A clear solution
supersaturation of PEG 400 concentrate [7]: not supersaturated
supersaturation of PS80 concentrate [7]: not supersaturated
